PubChem BioAssay (NCATS)
This list was built around the results that the source calls inconclusive (neither active nor inactive); the mix of calls is not that of the screen. A potency beside an inconclusive call is a rough fit, not a confirmed value. Calls of active or inactive are those of the source. Calls follow the shape of the dose curve; as a rule, active = well fitted activation curve with a large enough effect; inconclusive = small, poorly fitted or top-dose-only effect; inactive = no such curve, though single readings can be large or run the other way.

Molecular target: Cellular tumor antigen p53 (Homo sapiens) (UniProt P04637)
Assay: Primary qHTS for small molecule compounds that upregulate eGFP-tagged delta133p53alpha (in N-terminal) cells. (AID 2060322); also: nearly all actives have a fitted effect of over 75% in size;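 as to activation: series mostly up to about 56 µM; 0% = DMSO vehicle and 100% = reference activator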
Conditions: NCI-H358 eGFP-delta133p53alpha fluorescence, 24 h; activation: stronger effect = higher value
Outline: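 NCI-H358 cells pre-induced 24 h with 10 ng/ml doxycycline to express N-terminal eGFP-delta133p53alpha, then dosed 24 h at 37C without doxycycline; fixed, Hoechst-stained, GFP intensity by laser scanning cytometry, normalized to DMSO (0%) and 57.5 uM 5-azacytidine (100%).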
Potency is read from the fitted curve at half-maximal effect; tags tell the direction and shape of the fitted curve.

Sequence of UniProt P04637 (P04637 whole entry, looked up): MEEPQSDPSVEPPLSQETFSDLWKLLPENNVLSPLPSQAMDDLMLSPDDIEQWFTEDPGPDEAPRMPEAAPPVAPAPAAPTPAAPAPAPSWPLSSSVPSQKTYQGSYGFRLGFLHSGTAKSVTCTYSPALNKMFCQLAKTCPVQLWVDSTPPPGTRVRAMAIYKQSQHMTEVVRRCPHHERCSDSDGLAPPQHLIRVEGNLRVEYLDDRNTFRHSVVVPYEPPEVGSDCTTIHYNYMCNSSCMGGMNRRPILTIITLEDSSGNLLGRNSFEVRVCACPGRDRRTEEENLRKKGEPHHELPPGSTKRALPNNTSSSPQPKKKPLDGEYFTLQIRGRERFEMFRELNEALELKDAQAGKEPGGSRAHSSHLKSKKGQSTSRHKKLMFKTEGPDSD

| Structure (SMILES) | Potency | activation |
| --- | --- | --- |
| COC1C(O)C(OC2CCC3(C=O)C(CCC4C3CCC3(C)C(C5=CC(=O)OC5)CCC43O)C2)OC(C)C1OC1OC(CO)C(O)C(O)C1O (stereo not drawn) | inconclusive: 3.16 µM [activator, partial curve] |  |
| CN1C(=O)[C@@H](NC(=O)c2cc3ccccc3[nH]2)N=C(c2ccccc2)c2ccccc21 | inconclusive: 38.9 µM [activator, single point] |  |
| COC1C(O)C(C)OC(OC2C(CO)O[C@@H](O[C@@H]3CC4CCC5C(CC[C@]6(C)[C@@H](C7=CC(=O)OC7)CC[C@]56O)[C@@]4(C)[C@H](O)C3)C(O)C2O)C1O (stereo partly drawn) | active: 5 µM |  |
| O=C1Nc2ccc3ncsc3c2/C1=C/c1cnc[nH]1 | active: 2.39 µM |  |
| CCC(=O)OC1(c2ccccc2)CCN(C)CC1 | inconclusive: 0.0838 µM [activator, full curve] |  |
| C[C@H]1[C@@H]2Cc3ccc(O)cc3[C@@]1(C)CCN2C | inconclusive: 15.2 µM [activator, partial curve, poor fit] |  |
| CN(C)C(=S)SSC(=S)N(C)C | inconclusive: 38.9 µM [activator, single point] |  |
| CC[C@H]1C[C@@H]2C[C@H]3c4[nH]c5ccc(OC)cc5c4CCN(C2)[C@@H]13 | inconclusive: 49.4 µM [activator, single point] |  |
| CC1(C(=O)O)C2CCC(O2)C1(C)C(=O)O (stereo not drawn) |  | inactive: -33.6% |
| C[C@]12CC[C@@H](O[C@@H]3O[C@H](CO)[C@@H](O)[C@H](O)[C@H]3O)C[C@@]1(O)CCC1C2CC[C@]2(C)[C@@H](C3=CC(=O)OC3)CC[C@]12O (stereo partly drawn) | inconclusive: 0.37 µM [activator, partial curve, poor fit] |  |
| C/C=C(\C)C(=O)O[C@H]1CC2C(=C1C)[C@H]1OC(=O)[C@](C)(O)[C@]1(O)[C@H](OC(=O)CCC)C[C@@]2(C)OC(C)=O (stereo partly drawn) | inconclusive: 4.15 µM [activator, partial curve] |  |
| O=c1oc2ccccc2c(O)c1C(CC(O)c1ccc(-c2ccc(Br)cc2)cc1)c1ccccc1 (stereo not drawn) | inconclusive: 34.7 µM [activator, single point] |  |
| CC(C)(C)[C@]1(O)C[C@@H]2OC(=O)C[C@@]23C(=O)O[C@@H]2OC(=O)[C@@H](O)[C@]213 |  | inactive: -1.79% |
| NP(N)(=O)NC(=O)c1ccc(F)cc1 |  | inactive: -15.1% |
| O=C1NCN(c2ccccc2)C12CCN(CC1COc3ccccc3O1)CC2 (stereo not drawn) | inconclusive: 1.1 µM [activator, single point] |  |
| CC(=O)OC[C@]12C[C@H](OC(=O)CC(C)C)C(C)=C[C@H]1O[C@@H]1[C@H](O)C[C@@]2(C)[C@]12CO2 | active: 3.7 µM |  |
| CO[C@H]1[C@H](O)[C@H](O[C@H]2CC[C@]3(C=O)C4CC[C@]5(C)[C@H](C6=CC(=O)OC6)CC[C@]5(O)C4CC[C@@H]3C2)O[C@@H](C)[C@@H]1O (stereo partly drawn) | inconclusive: 2.94 µM [activator, partial curve, poor fit] |  |
| c1ccc2c(c1)Sc1ccccc1N2CC1CN2CCC1CC2 (stereo not drawn) | inconclusive: 38.9 µM [activator, single point] |  |
| CC[C@@H]1[C@@H](C)O[C@@](O)([C@@H](C)[C@H](O)[C@H](C)[C@H]2OC(=O)C=CC=C[C@@H](C)[C@@H]([C@@H](C)[C@@H](O)[C@H](C)[C@@]3(O)C[C@H](O[C@H]4C[C@H](O)[C@H](O)[C@H](C)O4)[C@H](CC)[C@@H](C)O3)OC(=O)C=CC=C[C@@H]2C)C[C@H]1O[C@H]1C[C@H](O)[C@H](O)[C@H](C)O1 | inconclusive: 17.2 µM [activator, partial curve, poor fit] |  |

| Structure (SMILES) | Potency | activation |
| --- | --- | --- |
| CC(C)C(=O)O[C@H]1[C@@H]2[C@H](C)C(=O)O[C@@H]2C[C@@H](C)[C@@H]2C=CC(=O)[C@]21C | inconclusive: 18.6 µM [activator, single point] |  |
| Cc1c(Cl)c(=O)oc2cc(OP(=O)(OCCCl)OCCCl)ccc12 |  | inactive: -15.9% |
| C[C@]12CC[C@H](O)C[C@H]1CC[C@@H]1[C@@H]2[C@H](O)C(=O)[C@]2(C)[C@@H](c3ccc(=O)oc3)CC[C@]12O | active: 0.19 µM |  |
| CC[C@H]1C[C@H]2[C@@H]3CCC4=CC(=O)CC[C@@H]4[C@H]3CC[C@]2(C)[C@H]1O |  | inactive: 5.67% |
| CO[C@]12CC[C@@]3(C[C@@H]1[C@](C)(O)C(C)(C)C)[C@@H]1Cc4ccc(O)c5c4[C@@]3(CCN1CC1CC1)[C@H]2O5 | inconclusive: 1.98 µM [activator, full curve, poor fit] |  |
| CCCN1CC[C@@H]2c3cc(O)ccc3CC[C@@H]21 |  | inactive: -3.44% |
| CCC(OC(C)=O)C(CC(C)NC)(c1ccccc1)c1ccccc1 (stereo not drawn) | active: 28.5 µM |  |
| O=C(Nc1ccccc1-c1ccc(Cl)cc1)c1cccnc1Cl | inconclusive: 31.7 µM [activator, partial curve, poor fit] |  |
| O=c1[nH]c2ccccc2n1C1CCNCC1 | inconclusive: 15.5 µM [activator, partial curve] |  |
| CCCCOC(=O)c1ccnc2cc(C(OCCN3CCCCC3)c3ccccc3C)sc12 (stereo not drawn) | inconclusive: 43.2 µM [activator, partial curve, poor fit] |  |
| CC(=O)OC[C@]12C[C@H](O)C(C)=C[C@H]1O[C@@H]1[C@H](O)[C@@H](OC(C)=O)[C@@]2(C)[C@]12CO2 | active: 0.083 µM |  |
| Nc1ncnc2c1ncn2[C@@H]1O[C@@H]2COP(O)(=S)O[C@H]2[C@H]1O (stereo partly drawn) | inconclusive: 0.0017 µM [activator, full curve, poor fit] |  |
| CC=C(C)C(=O)N[C@@H](c1ccccc1)[C@@H](O)C(=O)O[C@H]1C[C@@]2(O)[C@@H](OC(=O)c3ccccc3)[C@@H]3[C@]4(OC(C)=O)CO[C@@H]4C[C@H](O)[C@@]3(C)C(=O)[C@H](OC(C)=O)C(=C1C)C2(C)C |  | inconclusive: 70.4% [activator] |
| NC(=O)c1cc([N+](=O)[O-])cc([N+](=O)[O-])c1 |  | inactive: 0.837% |
| CCCCCCCCCCCCCC(=O)O[C@@H]1[C@@H](C)[C@@]2(O)[C@@H](C=C(CO)C[C@@]3(O)C(=O)C(C)=C[C@@H]23)C2C(C)(C)[C@@]21OC(C)=O (stereo partly drawn) | inconclusive: 23.9 µM [activator, single point] |  |
| ClCCCN1CCN(c2cccc(Cl)c2)CC1 |  | inactive: -2.82% |
| CCc1cc(OC)c(C[C@H](C)N)cc1OC | inconclusive: 2.95 µM [activator, full curve, poor fit] |  |
| COC1CC(O[C@H]2CC[C@]3(C=O)C4CC[C@]5(C)[C@@H](C6=CC(=O)OC6)CC[C@]5(O)[C@@H]4CC[C@]3(O)C2)OC(C)C1O[C@@H]1O[C@H](CO)[C@@H](O)[C@H](O)[C@H]1O (stereo partly drawn) | inconclusive: 0.63 µM [activator, full curve] |  |
| CC1=CC2/C=C(\C)CCC(O)C(O)/C=C/C(=O)C23C(=O)NC(CC(C)C)C3C1C (stereo not drawn) | active: 13.1 µM |  |
